# In the supplement of paper PMC8728848:
# Some of the results follow.
# B1: SEX4 (Arabidopsis thaliana), Q944A8 (protein)
# chain: TQAMGAVLTYRHELGMNYNFIRPDLIVGSCLQTPEDVDKLRKIGVKTIFCLQQDPDLEYFGVDISSIQAYAKKYSDIQHIRCEIRDFDAFDLRMRLPAVVGTLYKAVKRNGGVTYVHCTAGMGRAPAVALTYMFWVQGYKLMEAHKLLMSKRSCFPKLDAIRNATIDILTGLKRKTVTLTLKDKGFSRVEISGLDIGWGQRIPLTLGKGTGFWILKRELPEGQFEYKYIIDGEWTHNEAEPFIGPNKDGHTNNYAKVVDDPTSVDGTTRERLSSEDPELLEEERSKLIQFLETCSEAEV
# How the values were obtained:
# Experiment in all cases: glycan array binding signal (z-score within array); higher = stronger binding
# Conditions in all cases: glycan notation: IUPAC condensed, linker removed
# [1] = target: Gal(b1-3)[Fuc(a1-4)]GlcNAc(b1-3)Gal(b1-4)GlcNAc
# Procedure, shortened: (§1)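 The binding signal is a Z-score computed within each array and averaged over linkers. Arrays of the same protein sequence at different concentrations or buffers were also averaged together. Data originate from 3228 arrays in the Consortium for Functional Glycomics database, kept only where the protein sequence was available.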
# [2] = target: Gal(b1-3)[Fuc(a1-4)]GlcNAc(b1-3)Gal(b1-4)[Fuc(a1-3)]GlcNAc
# Procedure, shortened: as §1
# [3] = target: Gal(b1-3)[GlcNAc(b1-6)]GalNAc
# Procedure, shortened: as §1
# [4] = target: Gal(b1-3)[Neu5Ac(a2-6)]GalNAc
# Procedure, shortened: as §1
# [5] = target: Gal(b1-3)[Neu5Ac(a2-6)]GlcNAc(b1-6)Gal(b1-4)Glc
# Procedure, shortened: as §1
# [6] = target: Gal(b1-3)[Neu5Ac(b2-6)]GalNAc
# Procedure, shortened: as §1
# Gal(b1-4)Gal = target: Gal(b1-4)Gal
# Procedure, shortened: as §1
# [7] = target: Gal(b1-4)GalNAc(a1-3)[Fuc(a1-2)]Gal(b1-4)GlcNAc
# Procedure, shortened: as §1
# [8] = target: Gal(b1-4)GalNAc(b1-3)[Fuc(a1-2)]Gal(b1-4)GlcNAc
# Procedure, shortened: as §1
# Gal(b1-4)Glc = target: Gal(b1-4)Glc
# Procedure, shortened: as §1
# Gal(b1-4)Glc6S = target: Gal(b1-4)Glc6S
# Procedure, shortened: as §1
# Gal(b1-4)GlcNAc = target: Gal(b1-4)GlcNAc
# Procedure, shortened: as §1
# [9] = target: Gal(b1-4)GlcNAc(a1-6)Gal(b1-4)GlcNAc
# Procedure, shortened: as §1
# [10] = target: Gal(b1-4)GlcNAc(b1-2)Man(a1-3)Man(b1-4)GlcNAc(b1-4)GlcNAc
# Procedure, shortened: as §1
# [11] = target: Gal(b1-4)GlcNAc(b1-2)Man(a1-3)[Gal(b1-4)GlcNAc(b1-2)Man(a1-6)]Man(b1-4)GlcNAc(b1-4)GlcNAc
# Procedure, shortened: as §1
# [12] = target: Gal(b1-4)GlcNAc(b1-2)Man(a1-3)[Gal(b1-4)GlcNAc(b1-2)Man(a1-6)]Man(b1-4)GlcNAc(b1-4)[Fuc(a1-6)]GlcNAc
# Procedure, shortened: as §1
# [13] = target: Gal(b1-4)GlcNAc(b1-2)Man(a1-3)[Gal(b1-4)GlcNAc(b1-2)][GlcNAc(b1-4)]Man(b1-4)GlcNAc(b1-4)GlcNAc
# Procedure, shortened: as §1
# [14] = target: Gal(b1-4)GlcNAc(b1-2)Man(a1-3)[GlcNAc(b1-2)Man(a1-6)]Man(b1-4)GlcNAc(b1-4)GlcNAc
# Procedure, shortened: as §1
# [15] = target: Gal(b1-4)GlcNAc(b1-2)Man(a1-3)[Man(a1-6)]Man(b1-4)GlcNAc(b1-4)GlcNAc
# Procedure, shortened: as §1
# [16] = target: Gal(b1-4)GlcNAc(b1-2)Man(a1-6)Man(b1-4)GlcNAc(b1-4)GlcNAc
# Procedure, shortened: as §1
# [17] = target: Gal(b1-4)GlcNAc(b1-2)Man(a1-6)[GlcNAc(b1-2)Man(a1-3)]Man(b1-4)GlcNAc(b1-4)GlcNAc
# Procedure, shortened: as §1
# [18] = target: Gal(b1-4)GlcNAc(b1-2)Man(a1-6)[Man(a1-3)]Man(b1-4)GlcNAc(b1-4)GlcNAc
# Procedure, shortened: as §1
# [19] = target: Gal(b1-4)GlcNAc(b1-2)[Gal(b1-4)GlcNAc(b1-4)]Man(a1-3)[Gal(b1-4)GlcNAc(b1-2)Man(a1-6)]Man(b1-4)GlcNAc(b1-4)GlcNAc
# Procedure, shortened: as §1
# [20] = target: Gal(b1-4)GlcNAc(b1-2)[Gal(b1-4)GlcNAc(b1-4)]Man(a1-3)[Gal(b1-4)GlcNAc(b1-2)[Gal(b1-4)GlcNAc(b1-6)]Man(a1-6)]Man(b1-4)GlcNAc(b1-4)GlcNAc
# Procedure, shortened: as §1
# [21] = target: Gal(b1-4)GlcNAc(b1-2)[Gal(b1-4)GlcNAc(b1-4)]Man(a1-3)[GlcNAc(b1-4)][Gal(b1-4)GlcNAc(b1-2)Man(a1-6)]Man(b1-4)GlcNAc(b1-4)GlcNAc
# Procedure, shortened: as §1
# [22] = target: Gal(b1-4)GlcNAc(b1-2)[Gal(b1-4)GlcNAc(b1-6)]Man(a1-6)[GlcNAc(b1-4)][Gal(b1-4)GlcNAc(b1-2)Man(a1-3)]Man(b1-4)GlcNAc(b1-4)GlcNAc
# Procedure, shortened: as §1
# [23] = target: Gal(b1-4)GlcNAc(b1-3)Gal(b1-3)GlcNAc
# Procedure, shortened: as §1
# [24] = target: Gal(b1-4)GlcNAc(b1-3)Gal(b1-4)Glc
# Procedure, shortened: as §1
# [25] = target: Gal(b1-4)GlcNAc(b1-3)Gal(b1-4)GlcNAc
# Procedure, shortened: as §1
# [26] = target: Gal(b1-4)GlcNAc(b1-3)Gal(b1-4)GlcNAc(b1-3)Gal(b1-4)GlcNAc
# Procedure, shortened: as §1
# [27] = target: Gal(b1-4)GlcNAc(b1-3)Gal(b1-4)[Fuc(a1-3)GlcNAc(b1-6)]Gal(b1-4)Glc
# Procedure, shortened: as §1
# [28] = target: Gal(b1-4)GlcNAc(b1-3)Gal(b1-4)[Fuc(a1-3)]GlcNAc(b1-3)Gal(b1-4)[Fuc(a1-3)]GlcNAc
# Procedure, shortened: as §1
# [29] = target: Gal(b1-4)GlcNAc(b1-3)GalNAc
# Procedure, shortened: as §1
# [30] = target: Gal(b1-4)GlcNAc(b1-3)[Gal(b1-4)GlcNAc(b1-6)]Gal(b1-4)GlcNAc
# Procedure, shortened: as §1
# [31] = target: Gal(b1-4)GlcNAc(b1-3)[Gal(b1-4)GlcNAc(b1-6)]GalNAc
# Procedure, shortened: as §1
# [32] = target: Gal(b1-4)GlcNAc(b1-3)[GlcNAc(b1-6)]Gal(b1-4)GlcNAc
# Procedure, shortened: as §1
# [33] = target: Gal(b1-4)GlcNAc(b1-6)Gal(b1-4)GlcNAc
# Procedure, shortened: as §1
# [34] = target: Gal(b1-4)GlcNAc(b1-6)GalNAc
# Procedure, shortened: as §1
binder,measurement,setting,value
B1,glycan array binding signal (z-score),[1],0.013
same,glycan array binding signal (z-score),[2],-0.367
same,glycan array binding signal (z-score),[3],-0.444
same,glycan array binding signal (z-score),[4],-0.273
same,glycan array binding signal (z-score),[5],0.064
same,glycan array binding signal (z-score),[6],0.139
same,glycan array binding signal (z-score),Gal(b1-4)Gal,-0.4
same,glycan array binding signal (z-score),[7],-0.464
same,glycan array binding signal (z-score),[8],-0.409
same,glycan array binding signal (z-score),Gal(b1-4)Glc,-0.395
same,glycan array binding signal (z-score),Gal(b1-4)Glc6S,0.104
same,glycan array binding signal (z-score),Gal(b1-4)GlcNAc,-0.406
same,glycan array binding signal (z-score),[9],-0.119
same,glycan array binding signal (z-score),[10],0.202
same,glycan array binding signal (z-score),[11],-0.197
same,glycan array binding signal (z-score),[12],0.172
same,glycan array binding signal (z-score),[13],0.393
same,glycan array binding signal (z-score),[14],1.91
same,glycan array binding signal (z-score),[15],0.063
same,glycan array binding signal (z-score),[16],1.74
same,glycan array binding signal (z-score),[17],0.253
same,glycan array binding signal (z-score),[18],0.194
same,glycan array binding signal (z-score),[19],-0.206
same,glycan array binding signal (z-score),[20],-0.426
same,glycan array binding signal (z-score),[21],1.23
same,glycan array binding signal (z-score),[22],0.037
same,glycan array binding signal (z-score),[23],-0.483
same,glycan array binding signal (z-score),[24],0.372
same,glycan array binding signal (z-score),[25],-0.268
same,glycan array binding signal (z-score),[26],-0.022
same,glycan array binding signal (z-score),[27],-0.404
same,glycan array binding signal (z-score),[28],-0.35
same,glycan array binding signal (z-score),[29],-0.46
same,glycan array binding signal (z-score),[30],0.346
same,glycan array binding signal (z-score),[31],0.324
same,glycan array binding signal (z-score),[32],-0.354
same,glycan array binding signal (z-score),[33],-0.195
same,glycan array binding signal (z-score),[34],-0.548
